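Where inhibition never reached the appropriate level, the endpoint shown equals the highest concentration tested. Otherwise, values were interpolated linearly from a five-concentration, 48-hour dose response in 96-well plates. GI50 marks 50% less growth. At the TGI there is no net growth.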

The test system of the assay is NCI-H322M lung. As to the kind of experiment: inhibition of tumour cell growth, NCI panel, 48 h.
Compound `O=C(c1ccsc1)c1nccc2c1cnc1ccccc12` showed a TGI greater than 100 µM.

With `CCOC(=O)C1=C(C)N(Cc2ccccc2)C2(O)C=CC(=O)C3C(=O)N(c4ccccc4)C(=O)C132` (configuration not stated), the TGI was determined as 27 µM.

`COc1cccc(-c2nc(N)c(C#N)c3c2CCS(=O)(=O)c2ccc(C)cc2-3)c1` registered a TGI of 97.4 µM.

Consider `COc1ccc(/C(=N/O)c2cc(F)c(F)c(OC)c2F)cc1O`, for which the GI50 is 1.74 µM and the TGI was greater than 100 µM.

Take `N=c1oc2ccccc2cc1C(=O)Nc1ccccn1`: the TGI was greater than 100 µM.

For `CC1Nc2ccccc2NC1C=C(C#N)C#N` (configuration not stated), the TGI was found to be 30.8 µM.

In turn, `CC1=NN(c2ccccc2Cl)C2(C1)C(Cl)C(=O)N2c1nc2ccccc2s1` (configuration not stated) displayed a TGI greater than 100 µM.

Compound `COc1ccc(C)cc1NC(=S)N/N=C/c1ccco1` showed a TGI greater than 100 µM.

Regarding `O=C1C=C(c2ccccc2)NC1(c1ccccc1)c1cc(-c2ccccc2)[nH]c1-c1ccccc1` (configuration not stated), the TGI is greater than 100 µM.

The compound `CCOC(=O)N1C/C(=C\c2ccc(N(C)C)cc2)C(=O)/C(=C/c2ccc(N(C)C)cc2)C1` had a TGI greater than 100 µM.

With `COc1ccccc1OC/C(N=Cc1cccnc1)=N/NC(=O)c1ccncc1`, the TGI is greater than 100 µM.

In the case of `CC1CCC2C(C(=O)O[C@H]3C4C=CO[C@@H](OC5OC(CO)C(O)C(O)C5O)C4[C@@]4(CO)O[C@@H]34)=CO[C@@H](OC3OC(CO)C(O)C(O)C3O)C12` (some centres not stated), the TGI was greater than 10 µM.

Turning to `Cc1ccccc1-n1c(=O)nc2n(-c3ccc(C(C)(C)C)cc3)c3ccccc3cc-2c1=O`, the TGI is 50.6 µM.

As to `COc1cccc(/C=N/[N+](C)(C)C)c1O`, the TGI is greater than 10 µM.

For the compound `COC(=O)N1C=CC2=C(C)C3Nc4ccccc4C3C(C)=C2C1` (configuration not stated), the TGI came out at 47 µM.

For `COc1cc(C2c3cc4c(cc3[C@@H](Nc3cnc5ccccc5c3)C3COC(=O)[C@H]23)OCO4)cc(OC)c1O` (some centres not stated), the TGI is greater than 29.6 µM.

For `CN(C)Cc1nsc(N(C)C)n1`, the TGI is greater than 100 µM.

`CCc1n[nH]c(=O)n1N` displayed a TGI greater than 100 µM.

Turning to `NC(=O)c1c(-c2ccccc2)c(-c2ccccc2)cc2c(=O)c3ccccc3[nH]c12`, the TGI is greater than 100 µM.

Regarding `O=c1c2cc([N+](=O)[O-])ccc2[nH]n1Cc1ccccc1Cl`, the TGI is greater than 100 µM.

With `O=C(O)CNc1ncc2c(n1)-c1ccccc1OC2`, the TGI is greater than 100 µM.

Consider `C=C1C(=O)OC2/C=C(CO)/C=C\C3OC3(C)CC(OC(=O)/C(C)=C/COC(C)=O)C12` (configuration not stated), for which the TGI worked out at 28.1 µM.

In turn, `COc1c(O)ccc(/C=N/NC(=S)NCOCCOC(C)=O)c1OC` displayed a TGI greater than 100 µM.

`COc1ccc(C2=NC(CO)[C@H](c3ccccc3)O2)cc1OC` (some centres not stated): the TGI was greater than 100 µM.

`CC(C)(C)c1cc(C(C)(C)C)c(SSc2c(C(C)(C)C)cc(C(C)(C)C)c(O)c2O)c(O)c1O` came in with a TGI greater than 100 µM.

On to `CCCCCCCCC#CCCCCCCC(F)C(=O)O` (configuration not stated), for which the TGI is greater than 100 µM.

For `O=C(O)C(C1NCCS1)N1C(=O)c2ccccc2C1=O` (configuration not stated), the TGI is greater than 100 µM.

Compound `O=C(O)C(Cc1ccc(O)cc1)N=Cc1nc(-c2ccccc2)oc1O` (configuration not stated) showed a TGI greater than 100 µM.

Regarding `Nc1ccccc1SC(CC(=O)c1ccccc1)c1c(Cl)cccc1Cl` (configuration not stated), the GI50 was 13.1 µM and the TGI came out at 29.8 µM.

`N#Cc1ccc(N=NN2CCCC2)cc1`: the TGI was greater than 100 µM.

Consider `O=C(N/N=C/c1cc(Cl)cc(Cl)c1[O-])c1ccccc1O.O=C(N/N=C/c1cc(Cl)cc(Cl)c1[O-])c1ccccc1O.[Mn+2]`, for which the GI50 was 0.552 µM and the TGI stood at 13.4 µM.

In turn, `CN1C=C(C(N)=O)Cc2ccsc21` returned a TGI greater than 100 µM.

Compound `CC(=O)NC1=C(NCCO)C(=O)c2ccccc2C1=O` yielded a TGI greater than 50 µM.

With `NC(N)=N/N=C/c1c(Cl)nc2n1CCS2`, the TGI is greater than 100 µM.

Regarding `O=c1oc2cc(O)ccc2cc1-c1nc2ccccc2o1`, the TGI was greater than 100 µM.

The compound `COc1ccc2[nH]c(=O)cc(C)c2c1[N+](=O)[O-]` displayed a TGI greater than 100 µM.

Regarding `COc1cc2c(/C=C3/C(=O)Nc4cc(C)c(O)cc43)c(Cl)[nH]c2cc1C`, the TGI was 9.18 µM.

The compound `COC(=O)C1=CCC[C@H]2[C@@]1(COC(C)=O)CC[C@@H](C)[C@]2(C)CC(=O)c1ccoc1` came in with a TGI greater than 50 µM.

The compound `CCOC(=O)c1ccc(N[C@@H]2c3cc4c(cc3C(c3cc(OC)c(O)c(OC)c3)[C@H]3C(=O)OCC32)OCO4)cc1` (some centres not stated) yielded a TGI of 19.5 µM.

The record behind these values is PubChem BioAssay (NCI).
